# Paper PMC9911399, “Two distinct binding modes provide the RNA-binding protein RbFox with extraordinary sequence specificity”
# Where a chain is given by its changes, count along the chain named. The list shows a part of the results.
# T1: RBFOX1 RRM (Homo sapiens, UniProt Q9NWB1 109-208)
# T1 sequence: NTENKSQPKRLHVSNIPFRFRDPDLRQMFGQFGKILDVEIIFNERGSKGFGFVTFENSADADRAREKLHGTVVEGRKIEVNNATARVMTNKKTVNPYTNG
# B1: ACGCAUU (DNA:RNA)
# RNA: GGGAGACCGGAAUUCAGAUUGUCCACGCAUUUUAAAUCCCGUCGUAGCCACCA
# DNA 1: CAATCTGAATTCCGGTCTCCC
# DNA 2: TGGTGGCTACGACGGGATT
# B2: UAGGGCG (DNA:RNA)
# RNA: B1 RNA with A25U, C26A, C28G, A29G, U30C, U31G
# DNA 1: CAATCTGAATTCCGGTCTCCC
# DNA 2: TGGTGGCTACGACGGGATT
# B3: GUCCAGU (DNA:RNA)
# RNA: B1 RNA with A25G, C26U, G27C, U30G
# DNA 1: CAATCTGAATTCCGGTCTCCC
# DNA 2: TGGTGGCTACGACGGGATT
# B4: CUGAGUG (DNA:RNA)
# RNA: B1 RNA with A25C, C26U, C28A, A29G, U31G
# DNA 1: CAATCTGAATTCCGGTCTCCC
# DNA 2: TGGTGGCTACGACGGGATT
# B5: AUAGCCC (DNA:RNA)
# RNA: B1 RNA with C26U, G27A, C28G, A29C, U30C, U31C
# DNA 1: CAATCTGAATTCCGGTCTCCC
# DNA 2: TGGTGGCTACGACGGGATT
# B6: UAAUUGA (DNA:RNA)
# RNA: GGGAGACCGGAAUUCAGAUUGUCCUAAUUGAUUAAAUCCCGUCGUAGCCACCA
# DNA 1: CAATCTGAATTCCGGTCTCCC
# DNA 2: TGGTGGCTACGACGGGATT
# B7: UCUCUUU (DNA:RNA)
# RNA: B1 RNA with A25U, G27U, A29U
# DNA 1: CAATCTGAATTCCGGTCTCCC
# DNA 2: TGGTGGCTACGACGGGATT
# B8: AGAGUCG (DNA:RNA)
# RNA: B6 RNA with U25A, A26G, U28G, G30C, A31G
# DNA 1: CAATCTGAATTCCGGTCTCCC
# DNA 2: TGGTGGCTACGACGGGATT
# B9: UAUUGGG (DNA:RNA)
# RNA: B6 RNA with A27U, U29G, A31G
# DNA 1: CAATCTGAATTCCGGTCTCCC
# DNA 2: TGGTGGCTACGACGGGATT
# Biological target: T1, RBFOX1 RRM
# Test: EMSA; HiTS-Eq, 1 nM pool, 10 min; buffer printed only for the single-RNA assays: 10 mM Tris pH 7.5, 150 mM NaCl, 3.4 mM EDTA, 0.001% NP-40, 30 C
# Details: tags: His6 N-terminal (pET28a); label: 5' 32P
# How it was run: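 Purified RbFox RRM, wild type or mutant, was incubated for 10 min in 50 µL with 1 nM of a 5′-radiolabelled RNA pool carrying 7 randomized nucleotides, whose flanks were annealed to DNA oligonucleotides, over a series of increasing protein concentrations. Unbound RNA was resolved on 8% native PAGE, cut out, reverse-transcribed, barcoded by PCR and sequenced on an Illumina HiSeq 2500. Relative association constants were derived from changes in read counts for each RNA species versus the control reaction and normalised to the cognate motif.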
row,Binder,binding signal
1,B1,0.0104 KA relative to UGCAUGU
2,B2,0.00908 KA relative to UGCAUGU
3,B3,0.0116 KA relative to UGCAUGU
4,B4,0.0298 KA relative to UGCAUGU
5,B5,0.00434 KA relative to UGCAUGU
6,B6,0.0119 KA relative to UGCAUGU
7,B7,0.00515 KA relative to UGCAUGU
8,B8,0.0125 KA relative to UGCAUGU
9,B9,0.00424 KA relative to UGCAUGU
